The chains are these.
B1: LINE1-mini (parent)
chain: GGCAGAGCUCAACACAGCGUGGCAAAGUGGCUGUGGCUAGACUGCC

Read counts are not given, so values of variants with three or more changes are uncertain.

The variants in the data set derive from B1. Kind of data set: self-cleavage, relative activity (ratio to wild type); higher = more cleavage; in vitro, sequencing; the parent is a self-cleaving ribozyme.
Regarding G29C G33C C42U, the self-cleavage was determined as 0.11.

With G30U U38A C46U, the self-cleavage came out at 0.98.

With G27U U34C G35U C37A, the self-cleavage came to 0.13.

U28C U34A C37A A41C: the self-cleavage was 0.04.

Turning to G30A G33U G40C, the self-cleavage is 0.11.

Turning to G30U C37U U38A U43A, the self-cleavage turned out to be 0.02.

As for G30A U32G C37A, the self-cleavage came out at 0.09.

As to G29U C31A G33U, the self-cleavage amounted to 0.06.

In the case of G29U C37A U43C, the self-cleavage turned out to be 0.02.

Turning to U28A G30U G35U U38A C46A, the self-cleavage was determined as 0.05.

With G29A G35A C42U, the self-cleavage was 0.11.

Turning to G29U G30A C31A, the self-cleavage stood at 1.34.

U28G G30C G36A C45U: the self-cleavage amounted to 0.04.

As to G29A C31G C46A, the self-cleavage was found to be 0.05.

Take G29A G30A U32C: the self-cleavage was found to be 0.77.

For U28A G30A U34G C45A, the self-cleavage amounted to 0.03.

Take C31A G35C C42U: the self-cleavage is 0.08.

In the case of U28A U38G A39U, the self-cleavage was determined as 0.1.

Regarding G29A U38C G44C, the self-cleavage turned out to be 0.02.

For U28A G29U C31G G36A A39C C45G, the self-cleavage is 0.12.

With U28A U34A G35A U43A G44C, the self-cleavage was found to be 0.03.

Take G27U U34C C37U: the self-cleavage worked out at 0.04.

Consider U28G G30U G33U, for which the self-cleavage turned out to be 0.02.

As to G27U C42G U43C, the self-cleavage turned out to be 0.01.

U28G U43G G44C: the self-cleavage was 0.05.

For the variant G30C C37G G44U C46U, the self-cleavage came out at 0.04.

For the variant G27U G30U C31A C42A U43G, the self-cleavage worked out at 0.22.

On to G27U U38A G44U, for which the self-cleavage stood at 0.11.

For G30U C37U C42U G44U C45G, the self-cleavage was determined as 0.08.

In the case of G29U A41C U43C, the self-cleavage is 0.03.

For G27U U32A C45A, the self-cleavage came out at 0.03.

With G27U G30U U34G, the self-cleavage stood at 0.18.

Consider G30C C31A C42A, for which the self-cleavage turned out to be 0.03.

Take G30U C31U U32G G40C A41U C46A: the self-cleavage is 0.

For the variant U28C G40U G44A, the self-cleavage came out at 0.07.

In the case of U28C G30C C45U, the self-cleavage is 0.57.

For the variant G27U C31U G35U G40A, the self-cleavage came out at 0.01.

Turning to G27U G35C U38G, the self-cleavage stood at 0.06.

In the case of G29C G33U U38C, the self-cleavage was found to be 0.12.

Turning to C31A A39G G44U, the self-cleavage turned out to be 0.01.

For the variant G30A C31U G36U, the self-cleavage came to 0.43.

As to U28A G40U C45A, the self-cleavage was 0.12.

With U28G U32G U34A G36U, the self-cleavage stood at 0.03.

Take G30C U38G C42U: the self-cleavage was found to be 0.06.

With G29U C31G C37A A39G C42A, the self-cleavage came out at 0.02.

For the variant G30A G33C A39G, the self-cleavage came to 0.04.

G27U U32G C37A: the self-cleavage came to 0.08.

As for G30U U32C C37U, the self-cleavage stood at 0.03.

Regarding G30C C37A A41U, the self-cleavage amounted to 0.09.

For the variant G29U G30A U34G G35A, the self-cleavage is 0.03.

On to G30U U34C C46G, for which the self-cleavage was determined as 0.02.

Turning to G27U G30A G35U C42A, the self-cleavage was found to be 0.09.

G30U C31A C42G: the self-cleavage was determined as 0.04.

With G29C G36A U38C C46A, the self-cleavage was 0.05.

Turning to G30C U32C G36C U38G, the self-cleavage came to 0.01.

With C31A G33U C37A A39G, the self-cleavage is 0.

For U28G C37U C42A, the self-cleavage was found to be 0.1.

As for G29U C31G U32G, the self-cleavage stood at 0.02.

Consider G29C G33A U34A U38C, for which the self-cleavage was 0.01.

On to G29A G33U G40U, for which the self-cleavage was determined as 0.05.

For G29U U38G G40A C46A, the self-cleavage was 0.01.

As to U28C G33A A41G, the self-cleavage was 0.05.

For the variant G29C G30U G33A G35A, the self-cleavage was 0.02.

For G29U G44C C45A, the self-cleavage was 0.08.

With U28C G35U A41U, the self-cleavage turned out to be 0.1.

As to U28A G35C G36U, the self-cleavage was 0.

For the variant G27U G29C C31A A41G, the self-cleavage is 0.2.

On to G29A G30C G33U G35A, for which the self-cleavage is 0.02.

On to G29U C31A U43C, for which the self-cleavage worked out at 0.02.

With G29U C31A U43A, the self-cleavage stood at 0.04.

Take U28A U32C G35C: the self-cleavage stood at 0.06.

With G30U G33U G36C C45U, the self-cleavage was 0.11.

For the variant G30U A39U U43G C46G, the self-cleavage was found to be 1.4.

U28G C37U A39C: the self-cleavage came out at 0.09.

Regarding G30U C31G C37A C45A, the self-cleavage is 0.14.

On to G29C C37G A39C, for which the self-cleavage was determined as 0.03.

As for G27U G40C U43C G44U, the self-cleavage was found to be 0.08.

For U28C G33U G40A, the self-cleavage is 0.06.

Consider U28C G33U G40C, for which the self-cleavage is 0.01.

For the variant U28G C42G U43A, the self-cleavage was found to be 0.07.

In the case of U28G G29C C37U A39G C46A, the self-cleavage turned out to be 0.01.

G27U G29C A41G: the self-cleavage was 0.23.

Take G30C U38A A39U G40C: the self-cleavage came to 0.09.

Take U28A U38C C45U C46U: the self-cleavage turned out to be 0.02.

With G27U G29U G35C C37U, the self-cleavage was determined as 0.01.

As for G29U G40U C42A, the self-cleavage is 0.04.

On to U28A G35A U38G, for which the self-cleavage stood at 0.

G29A U34C C42U: the self-cleavage turned out to be 0.02.

Regarding G30A U34A U38A, the self-cleavage amounted to 0.05.

For the variant G30U A41U C45U C46A, the self-cleavage was 0.39.

Consider G29C G40C C46A, for which the self-cleavage was 0.02.

As for U28A G30U G33A, the self-cleavage was 0.05.

On to G29U C31A C46U, for which the self-cleavage was 0.05.

Take G29U G36C G40A: the self-cleavage worked out at 0.11.

As for G30C U32C C46U, the self-cleavage was 0.05.

Consider G29A C37G C42G, for which the self-cleavage was 0.01.

Regarding U28C C42U G44U, the self-cleavage was 0.1.

For the variant G30C G33U G35A, the self-cleavage amounted to 0.03.

As to U28G C31G U32C A41C, the self-cleavage was 0.05.

As for U28C G30U A41C C42A, the self-cleavage was 0.02.

As to G30U U32A U38A, the self-cleavage came out at 0.05.

With U28A G36U C46G, the self-cleavage was 0.03.

Take G29A C31U U38C: the self-cleavage amounted to 0.61.

G30C U34A G35A G40A: the self-cleavage came to 0.04.

With G29C U34C G44A, the self-cleavage was found to be 0.04.

In the case of G30A G40A G44U, the self-cleavage was found to be 0.02.

For G29C U38C G44C, the self-cleavage was determined as 0.

For the variant G30A G33A G36C C37G A41G, the self-cleavage came to 0.02.

With G29A A39C A41C, the self-cleavage came out at 0.04.

For G27U C31U C46G, the self-cleavage is 1.36.

Consider G29A U32C G35U G36U, for which the self-cleavage worked out at 0.05.

For the variant G29A U34C C46A, the self-cleavage is 0.21.

On to G30A G35C G36U, for which the self-cleavage was 0.12.

Turning to G27U G30A G36A, the self-cleavage was found to be 0.1.

As to G29C G35U C46U, the self-cleavage stood at 0.05.

As to U28C G40C A41U, the self-cleavage turned out to be 0.05.

Regarding U28G U38A A41G, the self-cleavage turned out to be 0.03.

U28G U38A A41C: the self-cleavage was 0.

For the variant U28A G30C G35A, the self-cleavage was 0.09.

For the variant G29C C37U C46A, the self-cleavage stood at 0.01.

On to G27U G35C G40A, for which the self-cleavage was determined as 0.14.

As for U28G G29A G36A C37U C46A, the self-cleavage amounted to 0.04.

On to G29A G30U C31U G36U, for which the self-cleavage came out at 0.05.

With U28C G35C U38A, the self-cleavage turned out to be 0.03.

Regarding G30A C31U U38C, the self-cleavage is 0.08.

On to U28A G30U G40A, for which the self-cleavage was found to be 0.05.

Regarding U28A G33U U38A A39G, the self-cleavage came out at 0.06.

For the variant U28A G36C U43G, the self-cleavage was 0.

For G29U A39U G40C C45U, the self-cleavage stood at 0.12.

With G29A G30U G36U, the self-cleavage was found to be 0.07.

Consider G29C U32G G33U, for which the self-cleavage worked out at 0.03.

Consider G29C U43A C45G, for which the self-cleavage amounted to 0.

In the case of G27U G33C G40A C45U, the self-cleavage is 0.

As to G30A G33C G44C, the self-cleavage was determined as 0.01.

On to C31A C37A C42U G44A, for which the self-cleavage stood at 0.34.

G29A U38C G40A: the self-cleavage was 0.14.

In the case of G30U C31U A41G, the self-cleavage turned out to be 0.04.

Consider G29A G35C C46U, for which the self-cleavage worked out at 0.14.

For the variant G27U G36U U38A, the self-cleavage came out at 0.02.

On to G30C C37A A39C, for which the self-cleavage stood at 0.03.

On to G27U G33U U34C U43C, for which the self-cleavage turned out to be 0.01.

Take C31A G33A U38A: the self-cleavage came to 0.04.

For the variant U28G C31U G36U C42A, the self-cleavage was 0.09.

For G29A C31U A39G, the self-cleavage is 0.04.

Take G27U U38A C46G: the self-cleavage was 0.24.

With G27U U38A C46U, the self-cleavage is 0.32.

Turning to U28C G29U G40C C42G, the self-cleavage was found to be 0.06.

As to G29A C42A C46G, the self-cleavage amounted to 0.03.

As for G30C A41G G44U C45A, the self-cleavage stood at 0.06.

As to G29U C31U G36U, the self-cleavage came to 0.07.

Regarding G27U G33A U43A, the self-cleavage is 0.06.

With G27U G30U U43C, the self-cleavage worked out at 0.04.

G30C C37U C46U: the self-cleavage came out at 0.08.

With G27U G36A U43C, the self-cleavage came to 0.08.

As to G30A G35C G36A C42A, the self-cleavage came out at 0.08.

In the case of G29U A41G U43C, the self-cleavage stood at 0.04.

Regarding U28C G35C C45U, the self-cleavage was 0.03.

Consider G29C G44A C46G, for which the self-cleavage was found to be 0.1.

For the variant G29C G30U C37G, the self-cleavage was determined as 0.05.

As for G29A G33A G36U C45U, the self-cleavage was determined as 0.01.

For the variant G29U C31G U38C G44U, the self-cleavage was 0.02.

Consider G29U U38A U43G, for which the self-cleavage worked out at 0.

G29C G35U C37A: the self-cleavage was 0.04.

For the variant G29C G35A G36U, the self-cleavage is 0.07.

With U28G C45A C46A, the self-cleavage was determined as 0.39.

With U28C G35A C45U, the self-cleavage worked out at 0.36.

With G30C U32C A41G, the self-cleavage was determined as 0.07.
